The values that follow come from the BET-seq Pho4 binding data (Le et al. 2018).

This is one part of the list. The energies were worked out here from pooled read counts, against the library average; single values are noisy.

This assay addresses T1, Pho4 (S. cerevisiae) (UniProt P07270).
T1 sequence: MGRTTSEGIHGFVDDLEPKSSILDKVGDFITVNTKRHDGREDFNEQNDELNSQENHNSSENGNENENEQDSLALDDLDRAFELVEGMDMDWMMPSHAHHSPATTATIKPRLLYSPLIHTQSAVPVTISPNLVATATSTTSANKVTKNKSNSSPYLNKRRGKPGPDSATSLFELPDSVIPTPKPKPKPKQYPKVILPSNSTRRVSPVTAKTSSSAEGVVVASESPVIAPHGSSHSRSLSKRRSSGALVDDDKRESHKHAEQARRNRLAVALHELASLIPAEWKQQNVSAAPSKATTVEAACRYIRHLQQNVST
Description: relative binding free energy (BET-seq); higher = weaker binding. To be noted: reference: library average.
For the sequence GGTGACACGTGGTGAC, the “relative binding free energy” value was 0.14 kcal/mol.

With ATTCTCACGTGGTAGT, the “relative binding free energy” value worked out at 0.14 kcal/mol.

Consider CTGGTCACGTGCAGTT, for which the “relative binding free energy” value worked out at 0.08 kcal/mol.

With TTTGGCACGTGGGACT, the “relative binding free energy” value is -0.07 kcal/mol.

Turning to TAGCTCACGTGTCGGG, the “relative binding free energy” value is 0.15 kcal/mol.

Regarding TAGGTCACGTGGGGCG, the “relative binding free energy” value was -0.07 kcal/mol.

Turning to AGGGTCACGTGGCATT, the “relative binding free energy” value came to 0.03 kcal/mol.

On to TCTGCCACGTGCGTGG, for which the “relative binding free energy” value is 0.01 kcal/mol.

Consider TGTCGCACGTGCTGGT, for which the “relative binding free energy” value is -0.09 kcal/mol.

In the case of CATGACACGTGTGTAT, the “relative binding free energy” value was 0.13 kcal/mol.

Turning to GTGTCCACGTGGCGTT, the “relative binding free energy” value was -0.01 kcal/mol.

In the case of TTGATCACGTGTTGTC, the “relative binding free energy” value came to 0.24 kcal/mol.

For GATGGCACGTGTGTGG, the “relative binding free energy” value turned out to be 0.03 kcal/mol.

TGTATCACGTGCCGTT: the “relative binding free energy” value amounted to 0.2 kcal/mol.

On to AAGGGCACGTGCTGCG, for which the “relative binding free energy” value is -0.27 kcal/mol.

With AAAGTCACGTGGTTTC, the “relative binding free energy” value came to 0.18 kcal/mol.

Regarding AATGACACGTGCAGTG, the “relative binding free energy” value is 0.15 kcal/mol.

Regarding CGATTCACGTGGATAT, the “relative binding free energy” value worked out at 0.4 kcal/mol.

Regarding GTTAGCACGTGGTTGG, the “relative binding free energy” value was -0.11 kcal/mol.

For the sequence TGGACCACGTGTAGGG, the “relative binding free energy” value is -0.11 kcal/mol.

Turning to ATTTACACGTGGAGCT, the “relative binding free energy” value amounted to 0.23 kcal/mol.

For the sequence TGGCCCACGTGGGATG, the “relative binding free energy” value was -0.15 kcal/mol.

Regarding TAGTGCACGTGCGTAT, the “relative binding free energy” value was -0.23 kcal/mol.

Take TGAGACACGTGGCATG: the “relative binding free energy” value was -0.03 kcal/mol.

Regarding GTTTTCACGTGTGTTT, the “relative binding free energy” value is 0.36 kcal/mol.

With TTTTGCACGTGAGAAG, the “relative binding free energy” value was determined as 0.27 kcal/mol.

With AATATCACGTGGGTAG, the “relative binding free energy” value is 0.03 kcal/mol.

For ATTGTCACGTGAAGGG, the “relative binding free energy” value worked out at 0.16 kcal/mol.

Take AGAGACACGTGGGATT: the “relative binding free energy” value was -0.01 kcal/mol.

On to TGGTCCACGTGTGTGT, for which the “relative binding free energy” value is -0.06 kcal/mol.

For ATGTGCACGTGGCAGT, the “relative binding free energy” value is -0.12 kcal/mol.

Take TTGGTCACGTGAACGG: the “relative binding free energy” value came to 0.29 kcal/mol.

Take GGCGGCACGTGTTGAA: the “relative binding free energy” value was found to be 0.04 kcal/mol.

As to AGGTTCACGTGCATTG, the “relative binding free energy” value came out at 0.19 kcal/mol.

For the sequence GGAGTCACGTGGTTTT, the “relative binding free energy” value came out at 0.14 kcal/mol.

For TCTGACACGTGTGCTT, the “relative binding free energy” value was found to be 0.2 kcal/mol.

With CTGTGCACGTGGAAGG, the “relative binding free energy” value was -0.05 kcal/mol.

Turning to AGGGACACGTGCTCGG, the “relative binding free energy” value is 0.01 kcal/mol.

Take TGGTGCACGTGTCATA: the “relative binding free energy” value was -0.15 kcal/mol.

TTGGGCACGTGGTTCT: the “relative binding free energy” value is -0.14 kcal/mol.

As for GGGGGCACGTGAGGGC, the “relative binding free energy” value is 0.12 kcal/mol.

As for TGTTGCACGTGCGCTA, the “relative binding free energy” value is -0.12 kcal/mol.

As for CTTGGCACGTGGGTCG, the “relative binding free energy” value is -0.2 kcal/mol.

Take ATGACCACGTGGGGGA: the “relative binding free energy” value is -0.24 kcal/mol.

Turning to GGCGGCACGTGGATGA, the “relative binding free energy” value turned out to be 0.03 kcal/mol.

Turning to ATTCACACGTGGGGGC, the “relative binding free energy” value worked out at 0.04 kcal/mol.

As to TGATTCACGTGGGCTA, the “relative binding free energy” value amounted to 0.26 kcal/mol.

For the sequence GTTTTCACGTGTAGGT, the “relative binding free energy” value was determined as 0.29 kcal/mol.

Regarding ATTAGCACGTGAAGGT, the “relative binding free energy” value is 0.06 kcal/mol.

For GTATGCACGTGGTTAT, the “relative binding free energy” value worked out at 0.04 kcal/mol.

On to GGTATCACGTGATACG, for which the “relative binding free energy” value is 0.32 kcal/mol.

As for TGCTGCACGTGTGATG, the “relative binding free energy” value was -0.08 kcal/mol.

Consider TTGGTCACGTGAAGTG, for which the “relative binding free energy” value amounted to 0.4 kcal/mol.

In the case of TTTGACACGTGGGTGT, the “relative binding free energy” value was -0.09 kcal/mol.

Regarding TGTGGCACGTGTAAGA, the “relative binding free energy” value amounted to 0.04 kcal/mol.

As for TTCTGCACGTGTAGTG, the “relative binding free energy” value came out at 0 kcal/mol.

For TATATCACGTGTGGGA, the “relative binding free energy” value is 0.14 kcal/mol.

As to TTTAACACGTGGCGAG, the “relative binding free energy” value is -0.01 kcal/mol.

For TGTGACACGTGTCGTA, the “relative binding free energy” value was found to be 0.05 kcal/mol.

For GTAAGCACGTGGTTAC, the “relative binding free energy” value amounted to 0.01 kcal/mol.

As to AGATTCACGTGGTTGC, the “relative binding free energy” value was 0.25 kcal/mol.

For the sequence TTTTTCACGTGTTAAC, the “relative binding free energy” value was 0.35 kcal/mol.

In the case of TTCGGCACGTGTGAAG, the “relative binding free energy” value was 0.13 kcal/mol.

For the sequence TAATGCACGTGGCAGT, the “relative binding free energy” value is -0.18 kcal/mol.

On to TAGGACACGTGGCGGG, for which the “relative binding free energy” value was -0.04 kcal/mol.

In the case of GGGGGCACGTGGGTAA, the “relative binding free energy” value was -0.16 kcal/mol.

For AGTGACACGTGAGGGT, the “relative binding free energy” value was 0.19 kcal/mol.

With AAATTCACGTGGCTGA, the “relative binding free energy” value stood at 0.37 kcal/mol.

With ATAGGCACGTGATGAG, the “relative binding free energy” value came out at 0.01 kcal/mol.

Consider TTTACCACGTGATGGT, for which the “relative binding free energy” value came out at 0.15 kcal/mol.

As to GCTATCACGTGAGGGT, the “relative binding free energy” value came out at 0.38 kcal/mol.

Turning to GTGCACACGTGATGTG, the “relative binding free energy” value was 0.12 kcal/mol.

Regarding TATTGCACGTGTACGT, the “relative binding free energy” value is 0.06 kcal/mol.

On to GTGTCCACGTGTGTGG, for which the “relative binding free energy” value is 0.06 kcal/mol.

Consider TAACTCACGTGTAGGA, for which the “relative binding free energy” value was 0.41 kcal/mol.

For the sequence TCTGCCACGTGGTATG, the “relative binding free energy” value was -0.11 kcal/mol.

Turning to ACGTTCACGTGGTCGT, the “relative binding free energy” value stood at 0.21 kcal/mol.

On to GATGTCACGTGTGGAT, for which the “relative binding free energy” value amounted to 0.16 kcal/mol.

As for CGTGGCACGTGATGGA, the “relative binding free energy” value was determined as 0.03 kcal/mol.

As to TCGTGCACGTGGATTA, the “relative binding free energy” value worked out at 0.17 kcal/mol.

On to ACGGACACGTGGTGTT, for which the “relative binding free energy” value turned out to be 0.07 kcal/mol.

As for CTTTACACGTGGGGGG, the “relative binding free energy” value was -0.14 kcal/mol.

In the case of GTAGCCACGTGGGGGG, the “relative binding free energy” value is -0.25 kcal/mol.

Regarding GTAAGCACGTGATGTA, the “relative binding free energy” value was determined as 0.02 kcal/mol.

For the sequence TTGTACACGTGGAGTC, the “relative binding free energy” value was -0.01 kcal/mol.

As for GTCGGCACGTGGGCGG, the “relative binding free energy” value is -0.09 kcal/mol.

AGGCTCACGTGTGATG: the “relative binding free energy” value amounted to 0.28 kcal/mol.

In the case of GGTATCACGTGGGGAC, the “relative binding free energy” value is -0.03 kcal/mol.

For the sequence GGAGACACGTGGGACG, the “relative binding free energy” value was -0.07 kcal/mol.

As to TAGAGCACGTGGATAG, the “relative binding free energy” value was -0.17 kcal/mol.

Consider ATTGACACGTGGTAAT, for which the “relative binding free energy” value came out at 0.06 kcal/mol.

GGATGCACGTGAGTTG: the “relative binding free energy” value is 0.13 kcal/mol.

As for GGGGGCACGTGGGACG, the “relative binding free energy” value is -0.18 kcal/mol.

As for GCTGCCACGTGGGGGA, the “relative binding free energy” value is -0.17 kcal/mol.

With GGATCCACGTGCGGGG, the “relative binding free energy” value worked out at 0 kcal/mol.

For the sequence TGTGTCACGTGAAAAA, the “relative binding free energy” value came out at 0.31 kcal/mol.

With CTAGGCACGTGCAGGT, the “relative binding free energy” value is -0.15 kcal/mol.

For GGCGGCACGTGTTATG, the “relative binding free energy” value was -0.05 kcal/mol.

On to GCGGGCACGTGGCGTT, for which the “relative binding free energy” value is -0.2 kcal/mol.

Regarding TGGAGCACGTGAATAT, the “relative binding free energy” value was found to be 0.21 kcal/mol.

For the sequence CATAGCACGTGGGTGG, the “relative binding free energy” value was -0.11 kcal/mol.

Take AGAGTCACGTGGAGCA: the “relative binding free energy” value amounted to 0.33 kcal/mol.

In the case of ATATTCACGTGGGGGA, the “relative binding free energy” value was 0.14 kcal/mol.

As to ATGGTCACGTGTTTTC, the “relative binding free energy” value amounted to 0.34 kcal/mol.

Consider GTCGTCACGTGTTCGT, for which the “relative binding free energy” value amounted to 0.15 kcal/mol.

In the case of GGGATCACGTGTGGCC, the “relative binding free energy” value came to 0.17 kcal/mol.

As for TGGTACACGTGAAAGT, the “relative binding free energy” value came to 0.34 kcal/mol.

With AGGGACACGTGGCAGT, the “relative binding free energy” value was -0.13 kcal/mol.

For GTTTACACGTGTGCAG, the “relative binding free energy” value came to 0.02 kcal/mol.

Consider AGTTCCACGTGTTTGT, for which the “relative binding free energy” value was determined as 0.05 kcal/mol.

Regarding TATGTCACGTGCATGG, the “relative binding free energy” value was -0.01 kcal/mol.

In the case of TTGATCACGTGTGTGC, the “relative binding free energy” value was 0.09 kcal/mol.

As for GGAAGCACGTGGAGTG, the “relative binding free energy” value is -0.14 kcal/mol.

Consider TTAATCACGTGAGGGT, for which the “relative binding free energy” value turned out to be 0.4 kcal/mol.

Regarding GTGGGCACGTGGGCGA, the “relative binding free energy” value is -0.08 kcal/mol.
